The text below walks through data of the supplement of paper PMC12217912.

The other results are listed elsewhere or left out. Sequences were assembled here from the parent chain. Values near 0.05 are background.

To fix the notation:
B1: TEV protease; numbered along this chain (parent)
chain: MGESLFKGPRDYNPISSSICHLTNESDGHTTSLYGIGFGPFIITNKHLFRRNNGTLVVQSLHGVFKVKDTTTLQQHLVDGRDMIIIRMPKDFPPFPQKLKFREPQREERICLVTTNFQTKSMSSMVSDTSCTFPSGDGIFWKHWIQTKDGQCGSPLVSTRDGFIVGIHSASNFTNTNNYFTSVPKNFMELLTNQEAQQWVSGWRLNADSVLWGGHKVFMVKPEEPFQPVKEATQL

The variants in this assay derive from B1. The experiment in a line: raw area under fraction-flipped curve 0-4 h after induction (AUC4h, not background-subtracted), DNA-recorder readout of cleavage of the substrate (dimensionless); higher = more cleavage of the substrate by the protease variant. As to conditions: temperature: 34 °C; time window: 0-4 h after rhamnose induction. The method, then:
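In vivo DNA recorder in E. coli TOP10(DE3) ΔrhaA at 34 °C. Each TEVp single-site mutant (parent TEVp 0) is paired with a single-site variant of the 7-mer TEVs (canonical ENLYFQ|S). The substrate sits between flexible linkers in a Bxb1-sfGFP-TEVs-SsrA fusion, so cleavage stabilises Bxb1 and speeds flipping of a recombination array, read by NGS. The value is the raw area under the fraction-flipped curve over 0-4 h after rhamnose induction (AUC4h), with ≥20 reads per time point. It is not background-subtracted; inactive controls average about 0.047.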
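Further: Bxb1 expression induced with 0.2% (w/v) L-rhamnose at OD600 near 0.5, cultures sampled hourly, flipped fraction per protease–substrate barcode pair counted by paired-end Illumina sequencing.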

Turning to MGESLFKGPRDYNPISSSICHLTNESDGHTTSLYGIGFGPFIITNKHLFRRNNGTLVVQSLHGVFKVKDTTTLQQHLVDGRDMIIIRMPKDFPPFPQKLKFREPQREERICLVTTNFQTKSMSSMVSDTSCTFPSGDGIFWKHWIQTKDEQCGSPLVSTRDGFIVGIHSASNFTNTNNYFTSVPKNFMELLTNQEAQQWVSGWRLNADSVLWGGHKVFMVKPEEPFQPVKEATQL [G150E], the “area with substrate ENAYFQS” value stood at 0.0566, the “area with substrate ENCYFQS” value was found to be 0.0638, the “area with substrate ENDYFQS” value worked out at 0.0662 and the “area with substrate ENEYFQS” value was 0.0574. The “area with substrate ENFYFQS” value worked out at 0.0588, the “area with substrate ENGYFQS” value was 0.053, the “area with substrate ENHYFQS” value stood at 0.0611 and the “area with substrate ENIYFQS” value was 0.0615. In addition, the “area with substrate ENKYFQS” value turned out to be 0.0602, the “area with substrate ENMYFQS” value came out at 0.0618, the “area with substrate ENNYFQS” value came out at 0.0558 and the “area with substrate ENQYFQS” value worked out at 0.0584. In addition, the “area with substrate ENRYFQS” value is 0.0637, the “area with substrate ENSYFQS” value worked out at 0.0609, the “area with substrate ENTYFQS” value was 0.0589 and the “area with substrate ENVYFQS” value worked out at 0.047.
For the variant MGESLFKGPRDYNPISSSICHLTNESDGHTTSLYGIGFGPFIITNKHLFRRNNGTLVVQSLHGVFKVKDTTTLQQHLVDGRDMIIIRMPKDFPPFPQKLKFREPQREERICLVTTNFQTKSMSSMVSDTSCTFPSGDGIFWKHWIQTKDWQCGSPLVSTRDGFIVGIHSASNFTNTNNYFTSVPKNFMELLTNQEAQQWVSGWRLNADSVLWGGHKVFMVKPEEPFQPVKEATQL [G150W], the “area with substrate ENAYFQS” value turned out to be 0.0534, the “area with substrate ENCYFQS” value stood at 0.0661, the “area with substrate ENDYFQS” value was determined as 0.0649 and the “area with substrate ENEYFQS” value was 0.0734. In addition, the “area with substrate ENFYFQS” value stood at 0.0558, the “area with substrate ENGYFQS” value amounted to 0.0605, the “area with substrate ENHYFQS” value is 0.0547 and the “area with substrate ENIYFQS” value worked out at 0.0559. In addition, the “area with substrate ENKYFQS” value came to 0.0767, the “area with substrate ENMYFQS” value was 0.0946, the “area with substrate ENNYFQS” value amounted to 0.0567 and the “area with substrate ENPYFQS” value is 0.0572. Moreover, the “area with substrate ENQYFQS” value stood at 0.0645, the “area with substrate ENRYFQS” value stood at 0.0587, the “area with substrate ENSYFQS” value stood at 0.0546 and the “area with substrate ENTYFQS” value is 0.0526. Besides, the “area with substrate ENVYFQS” value came to 0.0538 and the “area with substrate ENYYFQS” value came out at 0.0612.
As to MGESLFKGPRDYNPISSSICHLTNESDGHTTSLYGIGFGPFIITNKHLFRRNNGTLVVQSLHGVFKVKDTTTLQQHLVDGRDMIIIRMPKDFPPFPQKLKFREPQREERICLVTTNFQTKSMSSMVSDTSCTFPSGDGIFWKHWIQTKDGQAGSPLVSTRDGFIVGIHSASNFTNTNNYFTSVPKNFMELLTNQEAQQWVSGWRLNADSVLWGGHKVFMVKPEEPFQPVKEATQL [C152A], the “area with substrate ENAYFQS” value is 0.0504, the “area with substrate ENCYFQS” value is 0.0633, the “area with substrate ENDYFQS” value worked out at 0.066 and the “area with substrate ENEYFQS” value was 0.0558. Moreover, the “area with substrate ENGYFQS” value was 0.0462, the “area with substrate ENMYFQS” value amounted to 0.0817, the “area with substrate ENPYFQS” value worked out at 0.0619 and the “area with substrate ENQYFQS” value stood at 0.0617. The “area with substrate ENRYFQS” value turned out to be 0.0724, the “area with substrate ENSYFQS” value was found to be 0.0739, the “area with substrate ENTYFQS” value is 0.059 and the “area with substrate ENVYFQS” value worked out at 0.0539. For the same variant, the “area with substrate ENYYFQS” value was determined as 0.0613.
Take MGESLFKGPRDYNPISSSICHLTNESDGHTTSLYGIGFGPFIITNKHLFRRNNGTLVVQSLHGVFKVKDTTTLQQHLVDGRDMIIIRMPKDFPPFPQKLKFREPQREERICLVTTNFQTKSMSSMVSDTSCTFPSGDGIFWKHWIQTKDGQVGSPLVSTRDGFIVGIHSASNFTNTNNYFTSVPKNFMELLTNQEAQQWVSGWRLNADSVLWGGHKVFMVKPEEPFQPVKEATQL [C152V]: the “area with substrate ENAYFQS” value stood at 0.066, the “area with substrate ENCYFQS” value amounted to 0.0552, the “area with substrate ENDYFQS” value stood at 0.0508 and the “area with substrate ENEYFQS” value stood at 0.0574. In addition, the “area with substrate ENFYFQS” value came to 0.0655, the “area with substrate ENGYFQS” value was 0.0584, the “area with substrate ENHYFQS” value was determined as 0.0657 and the “area with substrate ENIYFQS” value is 0.0819. Further, the “area with substrate ENKYFQS” value amounted to 0.0454, the “area with substrate ENMYFQS” value came out at 0.0504, the “area with substrate ENNYFQS” value came out at 0.0723 and the “area with substrate ENPYFQS” value was found to be 0.0677. Moreover, the “area with substrate ENQYFQS” value is 0.0684, the “area with substrate ENRYFQS” value stood at 0.0525, the “area with substrate ENSYFQS” value stood at 0.0453 and the “area with substrate ENTYFQS” value turned out to be 0.0527. In addition, the “area with substrate ENVYFQS” value came out at 0.0852.
MGESLFKGPRDYNPISSSICHLTNESDGHTTSLYGIGFGPFIITNKHLFRRNNGTLVVQSLHGVFKVKDTTTLQQHLVDGRDMIIIRMPKDFPPFPQKLKFREPQREERICLVTTNFQTKSMSSMVSDTSCTFPSGDGIFWKHWIQTKDGQGGSPLVSTRDGFIVGIHSASNFTNTNNYFTSVPKNFMELLTNQEAQQWVSGWRLNADSVLWGGHKVFMVKPEEPFQPVKEATQL [C152G]: the “area with substrate ENAYFQS” value is 0.0594, the “area with substrate ENCYFQS” value turned out to be 0.0801, the “area with substrate ENDYFQS” value turned out to be 0.0522 and the “area with substrate ENEYFQS” value amounted to 0.0547. Moreover, the “area with substrate ENFYFQS” value stood at 0.0784, the “area with substrate ENGYFQS” value was 0.0512, the “area with substrate ENHYFQS” value came out at 0.0653 and the “area with substrate ENIYFQS” value worked out at 0.0689. Besides, the “area with substrate ENMYFQS” value was 0.0573, the “area with substrate ENNYFQS” value is 0.0556, the “area with substrate ENPYFQS” value came to 0.0495 and the “area with substrate ENQYFQS” value is 0.0586. For the same variant, the “area with substrate ENRYFQS” value turned out to be 0.052, the “area with substrate ENSYFQS” value is 0.0632, the “area with substrate ENTYFQS” value is 0.0427 and the “area with substrate ENVYFQS” value worked out at 0.0652. Further, the “area with substrate ENWYFQS” value is 0.0589 and the “area with substrate ENYYFQS” value came out at 0.06.
For the variant MGESLFKGPRDYNPISSSICHLTNESDGHTTSLYGIGFGPFIITNKHLFRRNNGTLVVQSLHGVFKVKDTTTLQQHLVDGRDMIIIRMPKDFPPFPQKLKFREPQREERICLVTTNFQTKSMSSMVSDTSCTFPSGDGIFWKHWIQTKDGQFGSPLVSTRDGFIVGIHSASNFTNTNNYFTSVPKNFMELLTNQEAQQWVSGWRLNADSVLWGGHKVFMVKPEEPFQPVKEATQL [C152F], the “area with substrate ENAYFQS” value amounted to 0.0482, the “area with substrate ENCYFQS” value is 0.0597, the “area with substrate ENDYFQS” value amounted to 0.0615 and the “area with substrate ENEYFQS” value was 0.0599. Further, the “area with substrate ENFYFQS” value is 0.0672, the “area with substrate ENGYFQS” value is 0.0599, the “area with substrate ENHYFQS” value came out at 0.0593 and the “area with substrate ENIYFQS” value came to 0.0629. The “area with substrate ENKYFQS” value worked out at 0.0702, the “area with substrate ENMYFQS” value is 0.0689, the “area with substrate ENNYFQS” value turned out to be 0.0575 and the “area with substrate ENPYFQS” value is 0.0442. For the same variant, the “area with substrate ENQYFQS” value was determined as 0.0713, the “area with substrate ENRYFQS” value turned out to be 0.0609, the “area with substrate ENSYFQS” value came to 0.061 and the “area with substrate ENTYFQS” value was found to be 0.0486. Moreover, the “area with substrate ENVYFQS” value was 0.0651.
Regarding MGESLFKGPRDYNPISSSICHLTNESDGHTTSLYGIGFGPFIITNKHLFRRNNGTLVVQSLHGVFKVKDTTTLQQHLVDGRDMIIIRMPKDFPPFPQKLKFREPQREERICLVTTNFQTKSMSSMVSDTSCTFPSGDGIFWKHWIQTKDGQWGSPLVSTRDGFIVGIHSASNFTNTNNYFTSVPKNFMELLTNQEAQQWVSGWRLNADSVLWGGHKVFMVKPEEPFQPVKEATQL [C152W], the “area with substrate ENAYFQS” value was 0.0562, the “area with substrate ENDYFQS” value was 0.0631, the “area with substrate ENEYFQS” value is 0.0559 and the “area with substrate ENFYFQS” value turned out to be 0.0572. The “area with substrate ENGYFQS” value was 0.0589, the “area with substrate ENHYFQS” value was found to be 0.0587, the “area with substrate ENIYFQS” value is 0.0886 and the “area with substrate ENKYFQS” value is 0.0532. In addition, the “area with substrate ENNYFQS” value turned out to be 0.0635, the “area with substrate ENPYFQS” value came to 0.0492, the “area with substrate ENQYFQS” value was found to be 0.0556 and the “area with substrate ENRYFQS” value was 0.0537. Also, the “area with substrate ENSYFQS” value came to 0.0559, the “area with substrate ENTYFQS” value amounted to 0.0622 and the “area with substrate ENVYFQS” value came to 0.0616.
On to MGESLFKGPRDYNPISSSICHLTNESDGHTTSLYGIGFGPFIITNKHLFRRNNGTLVVQSLHGVFKVKDTTTLQQHLVDGRDMIIIRMPKDFPPFPQKLKFREPQREERICLVTTNFQTKSMSSMVSDTSCTFPSGDGIFWKHWIQTKDGQMGSPLVSTRDGFIVGIHSASNFTNTNNYFTSVPKNFMELLTNQEAQQWVSGWRLNADSVLWGGHKVFMVKPEEPFQPVKEATQL [C152M], for which the “area with substrate ENAYFQS” value stood at 0.061, the “area with substrate ENCYFQS” value amounted to 0.0513, the “area with substrate ENEYFQS” value turned out to be 0.0401 and the “area with substrate ENFYFQS” value came out at 0.0492. The “area with substrate ENGYFQS” value worked out at 0.0575, the “area with substrate ENHYFQS” value was found to be 0.0518, the “area with substrate ENKYFQS” value came to 0.0592 and the “area with substrate ENMYFQS” value was 0.0713. The “area with substrate ENNYFQS” value was determined as 0.0622, the “area with substrate ENPYFQS” value came out at 0.0517, the “area with substrate ENSYFQS” value amounted to 0.0543 and the “area with substrate ENTYFQS” value was 0.0563. The “area with substrate ENVYFQS” value stood at 0.057.
